To fix the notation:
B1: LINE1-full (parent)
chain: UACGUAGGUGGUUUUCCCCUGAUAGUGCUAAGGGGGCCUGGAAGUUUGGACUGGGCAGAGCUCAACACAGCGUGGCAAAGUGGCUGUGGCUAGACUGCCUCUCUGGAUUCCUCGUCACUCAGCAGGGCAUCUCUGAGAGAAAUGCC

Read counts are not given, so values of variants with three or more changes are uncertain.

Variants of B1 are the subject of the data set. As to the kind of experiment: self-cleavage, relative activity (ratio to wild type); higher = more cleavage; in vitro, sequencing; the parent is a self-cleaving ribozyme.
Regarding UACGUAGGUGGUUUUCCCCUGAUAGUGCUAAGGGGGCCCGGAAGUUUGGACUGGGCAGAGCUCAACAGAGCGUGGCAAAGUGGCUGUGGCCAGACUGCCUCUCUGGAUUCCUCGUCACUCAGCAGGGCAUCUCUGAGAGAAAUGCC [U39C C68G U91C], the self-cleavage amounted to 0.19. For UACGUAGGUGGUUUUCCCCUGAUAGUGCUAAGGGGGCCCGGAAGUUCGGACUGGGCAGAGCUCAACACAGCGUGGCAAAGUGGCUGUGGCUAGACUGCCUCUCUGGAUUCCUCGUCACUCAGCAGGGCAUCUCCGAGAGAAAUGCC [U39C U47C U134C], the self-cleavage turned out to be 1.58. The figure for UACGUAGGUGGUUUUCCCCUGAUAGUGCUAAGGGGGCCCGGAAGUUUGGACUGGGCAUAGCUCAACACAGCGUGGCAAAGUGGCUGUGGCUAGACUGCCUCUCUGGAUUCCUCGUCACUCAGCAGGGCAUCUCAGAGAGAAAUGCC [U39C G58U U134A] is 0.03; for UACGUAGGUGGUUUUCCCCUGAUAGUGCUAAGGGGGCCCGGAAGGUUGGACUGGGCAGAGCUCAACACAGCGUGGCAAAGUGGCAGUGGCUAGACUGCCUCUCUGGAUUCCUCGUCACUCAGCAGGGCAUCUCUGAGAGAAAUGCC [U39C U45G U85A] it is 0.16. The figure for UACGUAGGUGGUUUUCCCCUGAUAGUGCUAAGGGGGCCCGGAAGUAUGGACUGGGCAGAGCCCAACACAGCGUGGCAAAGUGGCUGUGGCUAGACUGCCUCUCUGGAUUCCUCGUCACUCAGCAGGGCAUCUCUGAGAGAAACGCC [U39C U46A U62C U143C] is 0; for UACGUAGGUGGUUUUCCCCUGAUAGUGCUAAGGGGGCCCGGAAGUUAGGACUGGGCAGAGCACAACACAGCGUGGCAAAGUGGCUGUGGCUAGACUGCCCCUCUGGAUUCCUCGUCACUCAGCAGGGCAUCUCUGAGAGAAGUGCC [U39C U47A U62A U100C A142G] it is 0; for UACGUAGGUGGUUUUCCCCUGAUAGUGCUAAGGGGGCCCGGAAGUAUGGACUGGGCAGAGCUCAACACAGCGAGGCAAAGUGGCUGUGGCUAGACUGCCUCUCUGGAUUCCUCGUCACUCAGCAGGGCAUCUCUGAGAGAAAUGCC [U39C U46A U73A] it is 1.07. To UACGUAGGUGGUUUUCCCCUGAUAGUGCUAAGGGGGCCCGGAAGUUUGGACUCGGCAGAGCUCAACACAGCGUGGCAAAGUGGCUGUGGCUAGACUGCCUCUCUGGAUUCCUCGUCACUCAGCAGGGCAUCUCUGAGAGAAGUGCC [U39C G53C A142G] belongs 1.53. On to UACGUAGGUGGUUUUCCCCUGAUAGUGCUAAGGGGGCCCGGAAGUUAGGACUGGGCAGGGCUCAACACAGCGUGGCAAAGUGGCUGUGGCUAGACUGCCUCUCUGGAUUCCUCGUCACUCAGCAGGGCAUCUCUGAGAGAAAUGCC [U39C U47A A59G], for which the self-cleavage came to 0.1. The figure for UACGUAGGUGGUUUUCCCCUGAUAGUGCUAAGGGGGCCCGGAAGUUUGGACUGGGCAGAGCUCAACACAGCGUGGCAAAGUGGCUGUAGCUAGACUGCCUCUCUGGAUUCCUCGUCCCUCAGCAGGGCAUCUCUGAGAGAAAUGCC [U39C G88A A117C] is 0.07; for UACGUAGGUGGUUUUCCCCUGAUAGUGCUAAGGGGGCCCGGAAGUUUGGACUGGGCAGAGCUCAAUACAGCGUGGCAAAGUGGCUGUGGCUAGACUGCCUCUCUGGACUCCUCGUCACUCAGCAGGGCAUCUCUGAGAGAAAUGCC [U39C C66U U108C] it is 0.05; for UACGUAGGUGGUUUUCCCCUGAUAGUGCUAAGGGGGCCCGGAAGUUUGGACAGAGCAGAGCUCAACACAGCGUGGCAAAGUGGCUGUGGCUAGACUGCCUCUCUGGAUUCCUCGUCACUCAGCAGGGCAUCUCUGAGAGAAAUGCC [U39C U52A G54A] it is 0.47. The figure for UACGUAGGUGGUUUUCCCCUGAUAGUGCUAAGGGGGCCCGGAAGUCUGGACUGGGCAGAGCUCAACACAGCGUGGCAAAGUGGCUGUGGCUAGACUGCCUCUCUGGAUUCCUCGUCACUCAGCAGGGCAUCUCUGCGAGAAAUGCC [U39C U46C A136C] is 1.72; for UACGUAGGUGGUUUUCCCCUGAUAGUGCUAAGGGGGCCCGGAAGUUUGGACAGGGCAGAGCUCAACACUGCGUGGCAAAGUGGCUGUGGCUAGACUGCCUCUCUGGAUUCCUCGUCACUCAGCAGGGCAUCUCUGAGAGAAAUGCC [U39C U52A A69U] it is 0.07.

As for UACGUAGGUGGUUUUCCCCUGAUAGUGCUAAGGGGGCCCGGAAGUUCGGACUGGGCAGAGCUCAACACAGCGUGGCAAAGUGGCUGUGGCUAGACUGCCUCUCUGGAUUCCUCGUCACUCAGCAGGGCUUCUCUGAGAGAAAUGCC [U39C U47C A129U], the self-cleavage worked out at 1.67. The figure for UACGUAGGUGGUUUUCCCCUGAUAGUGCUAAGGGGGCCCGGAAGCUUGGACUGGGCAGAGCUCAACACAGCGUGGCAAAGUGGCUGUGGCUAGACUGCCUCUCUGGAUUCCUCGUCACUCAGCAGGGCAUCCCUGAGAGAAAUGCC [U39C U45C U132C] is 1.65; for UACGUAGGUGGUUUUCCCCUGAUAGUGCUAAGGGGGCCCGGAAGUUUGGACAGGGCAGAGCUCAACACAGCGUGGCAAAGUGGCUGUGGCUAGACUGCCUCUCUGGAUUCCUCGUUACUCAGCAGGGCAUCUCUGAGAGAAAUGCC [U39C U52A C116U] it is 1.34. Take UACGUAGGUGGUUUUCCCCUGAUAGUGCUAAGGGGGCCCGGAAGUUUGGACAGGGCAGAGCUCAACACUGCGUGGCAAAGUGGCUGUGGCUAGACUGCCUCUCUGGAUUCCUCGUCACUCAGCAGGGCAUCUCUGAGAGAAAUACC [U39C U52A A69U G144A]: the self-cleavage was determined as 0.

Consider UACGUAGGUGGUUUUCCCCUGAUAGUGCUAAGGGGGCCCGGAAGUGUGGCCAGGGCAGAGCUCAACACAGCGAGGCAAAGUGACUGUGGCUAGACUGCCUCUCUGGAUUCCUUGUCACUCAGCAGGGCAUCUCUGAGAGAAAUGCC [U39C U46G A50C U52A U73A G83A C113U], for which the self-cleavage was 0.58. UACGUAGGUGGUUUUCCCCUGAUAGUGCUAAGGGGGCCCGGAAGUUUGGACUGGGCAGAGCUCAACACAGCGUGGCAAAGUGGCUGUGGCUAGACUGCCUCUCUGGAUUCCUCGUCACUCAGCAGGGCAUCUCUGAGGGAAAUACC [U39C A138G G144A]: the self-cleavage is 1.63. The figure for UACGUAGGUGGUUUUCCCCUGAUAGUGCUAAGGGGGCCCGAAAGUUUGGACUGGGCAGAGCUCAACACAGCGUGGCAAAGUGGCUGUGGCUAGACUGCCUCUCUGGAUUCCUCGUCACUCAGCAGGGCAUCCCUGAGGGAAAUGCC [U39C G41A U132C A138G] is 1.5; for UACGUAGGUGGUUUUCCCCUGAUAGUGCUAAGGGGGCCCGGAAGUUCGGACUGGGCAGAGCUCAACACAGCGCGGCAAAGUGGCUGUGGCUAGACUGCCUCUCUGGAUUCCUCGUCACUCAGCAGGGCAUCUCUGAGAGAAAUGCC [U39C U47C U73C] it is 1.31. UACGUAGGUGGUUUUCCCCUGAUAGUGCUAAGGGGGCCCGGAAGUUCGGACUGGGCAGAGCGCAACACAGCGUGGCAAAGUGGCUGUGGCUAGACUGCCUCUCUGGAUUCCUCGUCACUCAGCAGGGCAUCUCUGAGAGAAAUGCC [U39C U47C U62G]: the self-cleavage stood at 0. The figure for UACGUAGGUGGUUUUCCCCUGAUAGUGCUAAGGGGGCCCGGAAGCUUGGACUGGGCAGAGCUCAACACAGCGUGGCAAAGUGGCUGUGGCUAGACUGCCUCUCUGGAUUCCUCGUCACUCAGCAGGGCAUCCCUGAGAGAAGUGCC [U39C U45C U132C A142G] is 1.02; for UACGUAGGUGGUUUUCCCCUGAUAGUGCUAAGGGGGCCCGGAAAUCUGGACUGGGCAGUGCCCAACACAGCGUGGCAAAGUGGCUGUGGCUAGACUGCCUCUCUGGAUUCCUCGUCACUCAGCAGGGCAUCUCUGAGAGAAAUGCC [U39C G44A U46C A59U U62C] it is 0.18. To UACGUAGGUGGUUUUCCCCUGAUAGUGCUAAGGGGGCCCGGAAGUAUGGACUGGGCAGAGCUCAACACAGCGUGGCAAAGUGGCUGUGGCUAGACUGCCUCUCUGGAUUCCUCUUCACUCAGCAGGGCAUCUCUUAGAGAAAUGCC [U39C U46A G114U G135U] belongs 0.74.

With UACGUAGGUGGUUUUCCCCUGAUAGUGCUAAGGGGGCCCGGAAGACUGGACUGGGCAGAGCUCAACACAGCGUGGCAAAGUGGCUGUGGCUAGACUGCCUCUCUGGAUACCCCGUCACUCAGCAGGGCAUCUCUGAGAGAAAUGCC [U39C U45A U46C U109A U112C], the self-cleavage stood at 0.51.

UACGUAGGUGGUUUUCCCCUGAUAGUGCUAAGGGGGCCCGGAAGUUUGUACUGGGCAGAGCUCAACACAGCGUGGCAAAGUGGCUGUGGCUAGACUGCCUCUCUGGAUUCCUCGUCACUCAGCAGGGCAUCUCUGAGAGGAACGCC [U39C G49U A140G U143C]: the self-cleavage is 0.6.

Regarding UACGUAGGUGGUUUUCCCCUGAUAGUGCUAAGGGGGCCCGGAAGUUUGGACUGGGUAGAGCUCAGCACAGCGUGGCAAAGUGGCAGUGGCUAGACUGCCUCUCUGGAUUCCUCGUCACUCAGCGGGGCAUCCCUGAGAGAAAUGCC [U39C C56U A65G U85A A124G U132C], the self-cleavage turned out to be 0. In the case of UACGUAGGUGGUUUUCCCCUGAUAGUGCUAAGGGGGCCCGGAAGUUAGGACUGGGCAGAGCUCAACACAGCGUGGCAAAGUGGCUGUGGCUAGGCUGCCUCUCUAGAUUCCUCGCCACUCAGCAGGGCAUCUCUGAGAGAAAUGCC [U39C U47A A94G G105A U115C], the self-cleavage was found to be 0.

As to UACGUAGGUGGUUUUCCCCUGAUAGUGCUAAGGGGGCCCGGAAGUUUGGACUGGGUAGAGCUCAACACAGCGUGGCAAAGUGGCUGUGGCUAGACUGCCACUCUGGAUUCCUCGUCACUCAGCAGGGCAUCUCUGAGAGAAAUGCC [U39C C56U U100A], the self-cleavage was 0.02. For the variant UACGUAGGUGGUUUUCCCCUGAUAGUGCUAAGGGGGCCCGGAAGUUUGGACUGGGCAGAGCUCAACACAGCGUGGCAAAGUGGCUGUGGCUAGACUGCCUCUCUGGAUUCCUCGUCUCUCAGCAGGGCACCUCUGAGAGAAAUGCC [U39C A117U U130C], the self-cleavage amounted to 2.01.

In the case of UACGUAGGUGGUUUUCCCCUGAUAGUGCUAAGGGGGCCCGGAAGUUUGGACUGGGCAGAGCUCAACACAGCGUGGCAAAGUGGCUGUGGCUAGACUGCCUCUCUGGAUUCCUCGUCACUCGGCAGGGCAUCUCUGAGAGGAAUGCC [U39C A121G A140G], the self-cleavage is 1.67. UACGUAGGUGGUUUUCCCCUGAUAGUGCUAAGGGGGCCCGGAAGUUCGGACUGGGCAGAGCUCAACACAGCGUGGCAAGGUGGCUGUGGCUAGACUGCCUCUCUGGAUUCCUCGUCACUCAGCAGGGCAUCUCUGAGAGAAACGCC [U39C U47C A79G U143C]: the self-cleavage is 1.35. For the variant UACGUAGGUGGUUUUCCCCUGAUAGUGCUAAGGGGGCCCGGAAGUUUGGACUGGGCAGAGCUCAACACAGCGUGGCAAAGUGGCUGUGGCUAGACUGCCUCUCUGGAUUCCUCGUCAAUCAGUAGGGCAUCUCUGAGAGAAAUGCC [U39C C118A C123U], the self-cleavage is 0.48.

For UACGUAGGUGGUUUUCCCCUGAUAGUGCUAAGGGGGCCCGGAAGUUUGGACUGGGCAGAGCCCUACACAGCGUAGCGAAGUGGCUGUGGCUAGACUGCCUCUCUGGAUUCCUCGUCACUCAGCAGGGCAUCUCUGAGAGAAAUGCC [U39C U62C A64U G74A A77G], the self-cleavage came to 0.01. The figure for UACGUAGGUGGUUUUCCCCUGAUAGUGCUAAGGGGGCCCGGAAGUUUAGACAGGGCAGAGCUCAACACAGCGUGGCGAAGUGGCUGUGGCUAGACUGCCUCUCUGGAUUCCUCGUCACUCAGCAGGGCACCUCUGAGAGAAAUGCC [U39C G48A U52A A77G U130C] is 2.3; for UACGUAGGUGGUUUUCCCCUGAUAGUGCUAAGGGGGCCCGGAAGUUUGGACUGGGCAGAGCCCAACACUGCGUGGCAAAGUGGCUGUGGCUGGACUGCCUCUCUGGACUCCUCGUCACUCAGCAUGGCAUCUCUGAGAGAAAUGCC [U39C U62C A69U A92G U108C G125U] it is 0; for UACGUAGGUGGUUUUCCCCUGAUAGUGCUAAGGGGGCCCGGAAGUUUGGACUGUGCAGAGCUCAACACAGCGUGGCAAAGUGGCCGUGGCUAGACUGCCUCUCUGGAUUCCUCGUCACUCAGCAGGGCAUCUCUGAGAGAAAUGCC [U39C G54U U85C] it is 0.13.

Values taken from the RNAGym collection of RNA variant scans (doi:10.7554/elife.90254).
